# Laboratory results as given in PubChem BioAssay AID588795 (National Center for Advancing Translational Sciences (NCATS), 2011).
# Screen size: about 390,000 compounds; about 1,400 (0.36%) were called active. This list was built around the results that the source calls inconclusive (neither active nor inactive); the mix of calls is not that of the screen. Calls come from the whole dose curve; as a rule, active = well fitted inhibition curve with a large enough effect; inconclusive = small, poorly fitted or top-dose-only effect; inactive = no such curve, though single readings can be large or run the other way. Potencies beside an inconclusive call are fits to weak or partial responses and may not hold up.
# Target: Flap endonuclease 1 (Homo sapiens) (UniProt P39748)
# Assay: qHTS Assay for the Inhibitors of Human Flap endonuclease 1 (FEN1). Note: nearly all actives have a fitted effect of over 65% in size.
# Details: Recombinant FEN1 flap cleavage, fluorescence, 15 min; series mostly up to 114 µM; activity change, negative = inhibition: at the top concentration
# Outline: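 In this screen, 50 nM flap DNA substrate was added to 10 nM FEN1 pretreated with compound for 15 min at room temperature; cleavage was followed with reads at 0 and 15 min, and Hill fitting gave concentration–response parameters.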
# % is set by controls: 0 for no effect and ±100 for the full control effect; potency is the fitted concentration of half-maximal effect; tags give direction and shape of the fitted curve.
# Sequence of UniProt P39748 (P39748 whole entry, looked up): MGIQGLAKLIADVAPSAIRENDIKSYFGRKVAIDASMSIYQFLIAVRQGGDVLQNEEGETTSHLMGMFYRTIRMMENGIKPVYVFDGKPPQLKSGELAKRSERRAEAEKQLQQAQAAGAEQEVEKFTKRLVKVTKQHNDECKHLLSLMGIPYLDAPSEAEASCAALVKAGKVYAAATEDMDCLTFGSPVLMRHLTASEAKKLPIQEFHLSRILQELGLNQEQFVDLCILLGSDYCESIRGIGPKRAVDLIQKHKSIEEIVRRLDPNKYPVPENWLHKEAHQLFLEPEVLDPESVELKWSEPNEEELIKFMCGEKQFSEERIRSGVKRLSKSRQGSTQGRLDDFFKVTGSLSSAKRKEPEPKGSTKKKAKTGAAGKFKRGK
SMILES,Potency,"activity change, negative = inhibition"
O=C(N/N=C/c1ccc([N+](=O)[O-])o1)c1ccccc1NS(=O)(=O)c1cccs1,"inconclusive: 89.1 µM [inhibitor, single point]",–
O=C1Nc2ccccc2C1C(C[N+](=O)[O-])c1ccccn1 (centres undefined),"inconclusive: 10 µM [inhibitor, full curve, poor fit]",–
Cc1sc2nc(C3CC3)nc(N3CCN(C(=O)c4ccc(Cl)cc4)CC3)c2c1C,"inconclusive: 89.1 µM [inhibitor, single point]",–
CCOc1ccc(NC(=O)c2cnn(-c3ccc(C)c(C)c3)c2C2CCN(C(=O)OC(C)(C)C)CC2)cc1,"inconclusive: 4.47 µM [inhibitor, partial curve, poor fit]",–
Cc1cccc(C)c1Nc1nc2ccccc2o1,–,inactive: 16%
CC(=O)N(C(C)=O)c1nc(-c2ccccc2)cn1/N=C/c1ccccc1,"inconclusive: 22.4 µM [inhibitor, full curve]",–
N#Cc1c(NC(=O)c2ccccc2Cl)n(Cc2ccccc2)c2nc3ccccc3nc12,"inconclusive: 79.4 µM [inhibitor, partial curve, poor fit]",–
CCc1ccc(NC(=O)Cn2c(=O)n(CCCCC(=O)NCCc3ccccc3)c(=O)c3ccccc32)cc1,–,inactive: 3.78%
Oc1ccc(/C=N/N=C/c2ccc(O)c(O)c2)cc1O,"inconclusive: 2.51 µM [inhibitor, full curve, poor fit]",–
C#CCN1C(=O)S/C(=C\c2ccc(-c3ccc(C(=O)O)cc3C)o2)C1=O,"inconclusive: 89.1 µM [inhibitor, single point]",–
COc1cccc(CNC(=O)c2oc3c(c2C)-c2nn(Cc4cccc(Cl)c4)cc2CC3)c1,"inconclusive: 79.4 µM [inhibitor, partial curve, poor fit]",–
COC(=O)c1c(-c2ccc(S(C)(=O)=O)cc2)sc2ccc(OC)cc12,"inconclusive: 79.4 µM [inhibitor, partial curve, poor fit]",–
Cc1ccccc1NC(=O)CN1C(=O)N/C(=C\c2cccn2-c2cccc(C(=O)O)c2)C1=O,"inconclusive: 63.1 µM [inhibitor, partial curve, poor fit]",–
Cc1ccc(OCCn2c(CCNC(=O)C3CCCCC3)nc3ccccc32)cc1,"inconclusive: 100 µM [inhibitor, single point]",–
Cc1cc2cc(C(c3nnnn3Cc3ccco3)N3CCCCC3)c(=O)[nH]c2cc1C (centres undefined),–,inactive: 2.86%
O=C(CC(Cl)(Cl)Cl)N1CCN(/[N+]([O-])=N/Oc2ccc([N+](=O)[O-])cc2[N+](=O)[O-])CC1,"inconclusive: 25.1 µM [inhibitor, partial curve, poor fit]",–
CCc1ccc([C@@H]2CC=C(C(=O)O)[C@H](c3ccc(C(C)(C)C)cc3)N2S(=O)(=O)c2ccc(C)cc2)cc1,"inconclusive: 70.8 µM [inhibitor, single point]",–
Cc1cccn2c(=O)c3cc(C(=O)NC4CCCC4)c(=N)n(CCCN4CCOCC4)c3nc12,"inconclusive: 8.91 µM [inhibitor, partial curve]",–
Cn1c(=O)c2c(nc(SCC(=O)NCC3CCCO3)n2C)n(C)c1=O (centres undefined),"inconclusive: 50.1 µM [inhibitor, partial curve, poor fit]",–
O=C(O)COc1ccc(/C=N/NC(=O)c2ccc(-c3csc(Nc4ccc(Cl)cc4)n3)cc2)cc1,"inconclusive: 35.5 µM [inhibitor, partial curve, poor fit]",–
CC(=O)c1sc2nc(CSc3nncn3C)[nH]c(=O)c2c1C,–,inactive: -6.34%
COC(=O)c1cc(O)cc(OC)c1Oc1cc(C)cc(O)c1C(=O)O,active: 50.1 µM,–

SMILES,Potency,"activity change, negative = inhibition"
Cc1oc(-c2ccccc2Cl)nc1CS(=O)(=O)CC(=O)NC(C)CCc1ccccc1 (centres undefined),"inconclusive: 89.1 µM [inhibitor, single point]",–
C=CCC1(CC=C)CCCN1C(=O)c1cc(COc2ccc(-n3cncn3)cc2)on1,"inconclusive: 79.4 µM [inhibitor, partial curve, poor fit]",–
O=C(NCc1cccs1)c1cc2c(s1)-c1ccccc1OC2,"inconclusive: 79.4 µM [inhibitor, partial curve, poor fit]",–
Cc1ccc(C(=O)COC(=O)CCN2C(=O)C3C4CCC(C4)C3C2=O)cc1[N+](=O)[O-] (centres undefined),"inconclusive: 89.1 µM [inhibitor, single point]",–
CN1CCc2nc3sc(C(=O)Nc4c(F)cccc4F)c(N)c3cc2C1,"inconclusive: 35.5 µM [inhibitor, partial curve]",–
CCN(CC)CC(C)(C)C(=O)/C=C/c1ccc(/C=C/C(=O)C(C)(C)CN(CC)CC)cc1,"inconclusive: 89.1 µM [inhibitor, partial curve, poor fit]",–
CC(C)=CCC/C(C)=C/Cc1c(O)ccc(C(=O)/C=C/c2ccc(O)cc2)c1O,"inconclusive: 79.4 µM [inhibitor, partial curve, poor fit]",–
CCC(=O)OCCNc1cc(Sc2nc3ccccc3[nH]2)c2nonc2c1[N+](=O)[O-],–,inactive: -23.3%
COc1ccc(-c2nc(SCC(=O)Nc3ccc4c(c3)OCO4)c(-c3ccc(F)cc3)[nH]2)cc1OC,"inconclusive: 89.1 µM [inhibitor, partial curve, poor fit]",–
Cc1ccc(C)c(Nc2nc3ccc(C)cc3n3cnnc23)c1,–,inactive: -2.01%
C[C@H]1C(=O)N(S(=O)(=O)c2ccccc2[N+](=O)[O-])[C@H]1c1ccc(-c2ccccc2)cc1,"inconclusive: 89.1 µM [inhibitor, single point]",–
Cc1ccc(C(=O)Nc2cc3cc(Cl)ccc3oc2=O)cc1,–,inactive: -6.09%
Cc1nnc(-c2cccc(Br)c2)c2cn(-c3cccc(Br)c3)nc12,"inconclusive: 89.1 µM [inhibitor, single point]",–
COc1cc(C2CC(=O)N3CN(Cc4ccccc4)CSC3=C2C#N)ccc1OCc1ccccc1 (centres undefined),"inconclusive: 10 µM [inhibitor, full curve, poor fit]",–
CCCc1nc2c(ccc3ccccc32)cc1CC,–,inactive: 1.6%
O=C(NC(=S)Nc1cccc(Cl)c1N1CCCCC1)c1cccs1,"inconclusive: 89.1 µM [inhibitor, partial curve, poor fit]",–
COc1ccc(OC)c(NC(=O)c2nc(S(=O)(=O)Cc3ccccc3F)ncc2Cl)c1,"inconclusive: 79.4 µM [inhibitor, partial curve, poor fit]",–
CN1C2=CC=CC=CC2=[N+](C)C12C=CC(=[N+]([O-])[O-])C=C2[N+](=O)[O-] (centres undefined),"inconclusive: 14.1 µM [inhibitor, full curve]",–
COc1ccc(-c2csc(NC(=O)c3ccc(S(=O)(=O)N4CCc5ccccc5C4)cc3)n2)c(OC)c1,–,inactive: -2.69%
CCOC(=O)C(C(=O)OCC)c1cc(Br)c2noc3c2c1C(=O)c1ccccc1-3,"inconclusive: 79.4 µM [inhibitor, single point]",–
COc1cc(OC)cc(C(=O)OCC(=O)Nc2nnc(-c3ccccc3)o2)c1,–,inactive: 6.75%
Cc1ccc(C(=O)/C=C/c2cn(CC(O)CN3CCCCCC3)c3ccccc23)cc1 (centres undefined),"inconclusive: 50.1 µM [inhibitor, partial curve, poor fit]",–

SMILES,Potency,"activity change, negative = inhibition"
CCOc1ccc2nc(NC(=O)c3ccoc3C)sc2c1,–,inactive: -7.07%
CN(CCC#N)C(=O)COC(=O)c1c2c(nc3ccccc13)/C(=C/c1ccco1)CC2,active: 50.1 µM,–
O=[N+]([O-])c1ccc(C=NNC(=S)Nc2ccc(F)cc2)cc1,–,inactive: 3.93%
COc1ccccc1OCCn1cc(/C=N/NC(=O)c2ccncc2)c2ccccc21,"inconclusive: 89.1 µM [inhibitor, single point]",–
CC(=O)Nc1cccc(NC(=O)Cc2csc(COc3cccc(C)c3)n2)c1,–,inactive: 6.87%
CC(C)(C)c1nc(SCC(=O)Nc2ccc3c(c2)OCCO3)c2ccccc2n1,"inconclusive: 56.2 µM [inhibitor, partial curve, poor fit]",–
CC(C)(C)[C@H]1COC(=O)[C@H](NC(=O)OCC2c3ccccc3-c3ccccc32)C/C=C\C[C@@H](CC(=O)N[C@H](CO)Cc2ccccc2)C(=O)N1,–,inactive: -14.1%
CSc1ccc(/C=C2\C=Cc3cc([N+](=O)[O-])ccc32)cc1,–,inactive: -0.676%
CC(=O)Nc1ccc(/C=C/c2ccccn2)cc1,–,inactive: 15%
CCOc1cc(/C=C2\SC(=S)N(Nc3ccccc3)C2=O)ccc1O,"inconclusive: 31.6 µM [inhibitor, full curve]",–
Cc1cc(C)nc(N/C=C(\C#N)C(=O)c2cccc(CSc3ccccc3)c2)n1,–,inactive: 0.259%
COc1ccccc1NC(=O)CSc1nnc(NC(=O)NC2CCCCC2)s1,–,inactive: -5.2%
COc1cc(/C=N/Nc2nncn2/N=C/c2ccc(O)c(OC)c2)ccc1O,"inconclusive: 12.6 µM [inhibitor, partial curve, poor fit]",–
CCC[N+](C)(C)c1ccc(/C=C/c2ccncc2)cc1,"inconclusive: 79.4 µM [inhibitor, single point]",–
CCOC(=O)c1c(NC(=O)c2cc(OCC)c(OCC)c(OCC)c2)sc2c1CCCCC2,–,inactive: 3.78%
N#C/C(=C\c1ccc(Sc2ccc(Cl)cc2)o1)c1nc2ccccc2[nH]1,"inconclusive: 79.4 µM [inhibitor, partial curve]",–
OCCN(CCO)c1ccc(/C=C/c2ccnc3ccccc23)cc1,–,inactive: -17.7%
COc1ccc(S(=O)(=O)Nc2cccc(-c3ccc4nncn4n3)c2)c(OC)c1,–,inactive: -6.67%
O=C(/C=C/c1ccco1)Nc1cccc(NC(=O)/C=C/c2ccco2)n1,–,inactive: 1.55%
CSc1nc(SCC(=O)NCC2CCCO2)c2c3c(sc2n1)CN(C)CC3 (centres undefined),"inconclusive: 50.1 µM [inhibitor, partial curve, poor fit]",–
